# Assay results reported in PubChem BioAssay AID504332 (National Center for Advancing Translational Sciences (NCATS), 2011).
# Among all 350,000 compounds or so, about 31,000 (8.9%) were called active. The inconclusive results got no clear call from the source; some entries with a clear call stand among them for comparison. Calls come from the whole dose curve; as a rule, active = well fitted inhibition curve with a large enough effect; inconclusive = small, poorly fitted or top-dose-only effect; inactive = no such curve, though single readings can be large or run the other way. Potencies of inconclusive entries are doubtful fits and often do not repeat.
# Biological target: Histone-lysine N-methyltransferase EHMT2 (Homo sapiens) (UniProt Q96KQ7)
# Experiment: qHTS Assay for Inhibitors of Histone Lysine Methyltransferase G9a; note: nearly all actives have a fitted effect of over 75% in size
# Details: G9a H3K9 monomethylation, AlphaScreen, 2 h; activity, negative = inhibition: at 59 µM (top of the series) unless noted
# Outline: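 AlphaScreen read-out: biotin-H3K9 peptide (500 nM) methylation by 20 nM enzyme with 20 uM SAM, 2 h at room temperature after 15 min compound preincubation; anti-monomethyl H3K9 antibody plus donor/acceptor beads, 10 min dark.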
# % is set by controls: 0 for no effect and ±100 for the full control effect; potency is the fitted concentration of half-maximal effect; tags give direction and shape of the fitted curve.
# Chain of UniProt Q96KQ7 (Q96KQ7 whole entry, looked up): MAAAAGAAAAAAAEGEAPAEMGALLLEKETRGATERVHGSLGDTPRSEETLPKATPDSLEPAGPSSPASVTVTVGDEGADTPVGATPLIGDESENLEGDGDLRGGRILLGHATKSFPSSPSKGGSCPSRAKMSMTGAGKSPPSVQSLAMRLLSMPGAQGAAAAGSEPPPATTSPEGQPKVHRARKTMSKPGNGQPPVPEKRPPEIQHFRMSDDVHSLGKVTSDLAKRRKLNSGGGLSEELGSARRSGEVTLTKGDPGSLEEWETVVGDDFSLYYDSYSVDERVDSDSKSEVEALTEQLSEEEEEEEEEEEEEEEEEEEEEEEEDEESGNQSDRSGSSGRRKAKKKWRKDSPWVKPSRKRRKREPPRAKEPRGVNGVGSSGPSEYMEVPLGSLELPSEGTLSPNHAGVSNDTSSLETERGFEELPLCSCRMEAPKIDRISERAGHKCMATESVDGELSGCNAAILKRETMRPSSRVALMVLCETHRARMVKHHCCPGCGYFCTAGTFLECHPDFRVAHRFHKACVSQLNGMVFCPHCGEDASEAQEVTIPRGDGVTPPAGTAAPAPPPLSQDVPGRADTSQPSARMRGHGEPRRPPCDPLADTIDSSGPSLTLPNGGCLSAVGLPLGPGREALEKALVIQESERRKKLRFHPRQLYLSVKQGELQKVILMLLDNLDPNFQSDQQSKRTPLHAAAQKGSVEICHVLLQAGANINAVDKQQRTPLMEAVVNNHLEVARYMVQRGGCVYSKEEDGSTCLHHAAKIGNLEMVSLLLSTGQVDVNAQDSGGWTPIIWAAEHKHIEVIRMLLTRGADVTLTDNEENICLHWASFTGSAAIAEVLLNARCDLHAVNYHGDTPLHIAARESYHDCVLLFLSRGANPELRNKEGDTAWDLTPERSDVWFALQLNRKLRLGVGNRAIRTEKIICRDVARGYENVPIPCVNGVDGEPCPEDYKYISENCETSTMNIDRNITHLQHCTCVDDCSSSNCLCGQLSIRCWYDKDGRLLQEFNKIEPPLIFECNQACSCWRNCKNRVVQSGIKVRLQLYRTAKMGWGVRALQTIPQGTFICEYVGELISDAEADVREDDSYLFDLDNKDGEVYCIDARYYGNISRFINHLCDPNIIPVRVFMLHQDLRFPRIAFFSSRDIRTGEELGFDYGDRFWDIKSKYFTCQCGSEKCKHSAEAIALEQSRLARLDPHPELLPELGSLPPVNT
Structure (SMILES),Potency,"activity, negative = inhibition"
O=c1c2ccccc2c(/C=N/NS(=O)(=O)c2ccccc2)c(O)n1-c1ccccn1,"inconclusive: 35.5 µM [inhibitor, partial curve, poor fit]",–
COc1ccccc1N(O)C1CC(=O)N(c2ccc(Br)cc2)C1=O (stereo not given),"inconclusive: 6.31 µM [inhibitor, single point]",–
Cc1cc(=O)oc2cc(OCC(=O)Nc3nnc(C(C)C)s3)ccc12,active: 44.7 µM,–
O=C1OC(N2CCN(C(=O)C3CCCO3)CC2)c2ccccc21 (stereo not given),"inconclusive: 70.8 µM [inhibitor, partial curve, poor fit]",–
O=[N+]([O-])c1cccc(-c2ccc(/C=N/NC(=S)Nc3ccccc3)o2)c1,–,inactive: 0.845% [at 102 µM]
Cc1ccc(NC(=O)CSc2ccc3nnc(CCNC(=O)c4ccccc4)n3n2)c(C)c1,–,inactive: 24.4%
C=CCNC(=O)NC(=O)COC(=O)c1nc2nccc(C)n2n1,"inconclusive: 31.6 µM [inhibitor, partial curve, poor fit]",–
Cc1cccc(-n2ncc3c(NCCCn4ccnc4)ncnc32)c1,"inconclusive: 56.2 µM [inhibitor, single point]",–
Nc1ccccc1SC/C=C/CSc1ccccc1N,active: 11.2 µM,–
CCOC(=O)C1CCN(C(=O)c2cc(COc3ccc(F)cc3F)on2)CC1,–,inactive: 59% [at 102 µM]
N#CC1(NC(=O)CSc2nc3ccc([N+](=O)[O-])cc3s2)CCCCC1,"inconclusive: 89.1 µM [inhibitor, partial curve, poor fit]",–
COc1ccc(Cn2c(O)c(/C=N/NC(=O)c3cccnc3)c3ccccc3c2=O)cc1,"inconclusive: 89.1 µM [inhibitor, single point]",–
Cc1ccc(S(=O)(=O)N2CCN(C(=O)c3cc(S(=O)(=O)N(C)C)ccc3N3CCCC3)CC2)c(C)c1,"inconclusive: 79.4 µM [inhibitor, partial curve, poor fit]",–
O=C(Nc1ccc(N2CCN(C(=O)c3ccccc3)CC2)c(Cl)c1)c1ccco1,–,inconclusive: -67.6% [inhibitor]
O=C(CN1C(=O)CCS(=O)(=O)c2ccccc21)Nc1ccc(Cl)cc1,"inconclusive: 89.1 µM [inhibitor, single point]",–
COc1ccccc1NC(CC(=O)c1ccccc1)C(=O)OCC(=O)c1ccc(C)c(C)c1 (stereo not given),"inconclusive: 39.8 µM [inhibitor, single point]",–
CCN(Cc1nc(-c2ccccc2)no1)C(=O)c1ccco1,–,inactive: 14.1% [at 102 µM]
Cc1ccccc1OCCC(=O)N(CC(C)C)c1c(N)n(Cc2ccccc2)c(=O)[nH]c1=O,–,inactive: 23% [at 12.7 µM]
COc1ccc(O)c(/C=N/Nc2nc3ccccc3[nH]2)c1,"inconclusive: 70.8 µM [inhibitor, single point]",–
CC(C)(C)c1ccc(C(=O)NCCn2c(N)c(C#N)c3nc4ccccc4nc32)cc1,–,inactive: 23.9% [at 102 µM]
Cc1ccc(Nc2nnc(SCC(=O)Nc3cccc(S(=O)(=O)NC4=NCCCCC4)c3)s2)c(C)c1,active: 39.8 µM,–
Cc1ccc([N+](=O)[O-])cc1S(=O)(=O)N1CCCN(C)CC1,active: 56.2 µM,–

Structure (SMILES),Potency,"activity, negative = inhibition"
CCOC(=O)C1=C(Nc2ccc(OC)cc2)OCC1=O,–,inactive: 11.2% [at 102 µM]
O=[N+]([O-])c1cccc(-c2ccc3nnc(SCc4ccccn4)n3n2)c1,–,inactive: 9.83% [at 102 µM]
COc1ccc(Nc2nc(N)nc(CSC(=S)N3CCN(c4ccccc4)CC3)n2)cc1,"inconclusive: 79.4 µM [inhibitor, single point]",–
COc1ccc(CNC(=S)N/N=C(/C)c2ccccc2)cc1,"inconclusive: 79.4 µM [inhibitor, single point]",–
N#Cc1cc(Sc2ccccn2)c([N+](=O)[O-])cc1C#N,–,inactive: 8.85% [at 102 µM]
COc1ccc2c(c1)CC/C(=C\c1ccc(OC)c(Cn3nc(C)cc3C)c1)C2=O,"inconclusive: 89.1 µM [inhibitor, single point]",–
C=CCSC(=S)NC1CCS(=O)(=O)C1 (stereo not given),active: 50.1 µM,–
COC(=O)c1ccc(CNC(=O)c2ccc(NS(=O)(=O)c3ccc4[nH]c(=O)[nH]c4c3)cc2)cc1,"inconclusive: 89.1 µM [inhibitor, partial curve, poor fit]",–
COc1ccc(CCC(=O)OCC(=O)N(CC(C)C)c2c(N)n(Cc3ccccc3)c(=O)[nH]c2=O)cc1,"inconclusive: 44.7 µM [inhibitor, partial curve, poor fit]",–
COc1cc2ncnc(NCc3ccc(F)cc3)c2cc1OC,"inconclusive: 79.4 µM [inhibitor, single point]",–
Clc1ccc(-c2nn3c(-c4ccccc4)nnc3s2)cc1,"inconclusive: 39.8 µM [inhibitor, partial curve, poor fit]",–
COc1ccc(-c2c(C#Cc3ccsc3)c3ccccc3n2C)cc1,active: 31.6 µM,–
Cc1ccc(O)c(NC(=O)CCS(=O)(=O)c2nc(-c3ccc4c(c3)OCO4)cc(C(F)(F)F)n2)c1,"inconclusive: 12.6 µM [inhibitor, partial curve, poor fit]",–
CC1CC(C)CN(C/C=C/c2ccccc2[N+](=O)[O-])C1 (stereo not given),active: 50.1 µM,–
O=C(Cn1cnc2c(nnn2Cc2ccc(F)cc2)c1=O)N1CCCc2ccccc21,"inconclusive: 0.316 µM [inhibitor, partial curve, poor fit]",–
CCc1ccc(-n2c(CCC(=O)O)ccc2-c2ccc(F)cc2)cc1,active: 10 µM,–
CCCCSc1nc(O)c(C2OC(=O)c3c2ccc(OC)c3OC)c(=O)n1-c1ccccc1 (stereo not given),"inconclusive: 4.47 µM [inhibitor, full curve, poor fit]",–
NC(=O)c1oc2ccccc2c1NC(=O)c1nc2ccccc2s1,"inconclusive: 70.8 µM [inhibitor, single point]",–
CCOCCCN(C(=O)Cn1nnc(-c2ccc(C)o2)n1)C(C(=O)NC1CCCC1)c1ccc(C)o1 (stereo not given),"inconclusive: 79.4 µM [inhibitor, partial curve, poor fit]",–
COc1cccc(=O)c2c(C)oc(C)c12,"inconclusive: 39.8 µM [inhibitor, single point]",–
CCC(=O)NC(=S)Nc1ccc(NC(=S)NC(=O)c2ccc(C)cc2)cc1,"inconclusive: 79.4 µM [inhibitor, single point]",–
CCN(CC)C(=O)Cn1cc(S(=O)(=O)CC(=O)N2CCCCCC2)c2ccccc21,"inconclusive: 89.1 µM [inhibitor, single point]",–

Structure (SMILES),Potency,"activity, negative = inhibition"
Cc1cccc(C)c1NC(=O)CN(C)C(=O)c1cccc(S(=O)(=O)N2CCN(c3ccc(F)cc3)CC2)c1,"inconclusive: 44.7 µM [inhibitor, partial curve, poor fit]",–
Cc1occc1C(=O)NCc1ccccn1,"inconclusive: 44.7 µM [inhibitor, partial curve, poor fit]",–
CC1CN(S(=O)(=O)c2ccc(C(=O)O)cc2)CC(C)O1 (stereo not given),"inconclusive: 100 µM [inhibitor, single point]",–
O=C(COc1ccc2ccccc2c1)NC1=NCCS1,"inconclusive: 25.1 µM [inhibitor, single point]",–
NS(=O)(=O)c1cccc(C(=O)NC2CCSc3ccccc32)c1 (stereo not given),"inconclusive: 50.1 µM [inhibitor, partial curve]",–
Cn1ccnc1SCC(=O)c1ccc(O)cc1,"inconclusive: 89.1 µM [inhibitor, single point]",–
CCC(=O)NC(c1ccc([N+](=O)[O-])cc1)c1c(O)ccc2ccccc12 (stereo not given),–,inconclusive: -97.4% [inhibitor]
COc1ccc(C(c2nnnn2C2CCCC2)N2CCC(C)CC2)c(OC)c1 (stereo not given),"inconclusive: 39.8 µM [inhibitor, partial curve, poor fit]",–
CC(C)[C@H](NC(=O)c1ccc(Cl)c([N+](=O)[O-])c1)C(=O)NCc1ccc(Cl)cc1Cl,"inconclusive: 25.1 µM [inhibitor, single point]",–
O=C(c1ccc(F)cc1)C1CCN(Cc2cn[nH]c2-c2ccc(F)cc2)CC1,"inconclusive: 79.4 µM [inhibitor, partial curve, poor fit]",–
OC1CCN(Cc2cccc(Oc3ccccc3)c2)CC1,–,inactive: -1.41%
Cc1nn(C)c(C)c1CN(Cc1nc(CCC(C)C)no1)C(C)C,"inconclusive: 0.282 µM [inhibitor, partial curve, poor fit]",–
CC1CCN(CC(=O)Nc2ccc3c(c2)OCO3)CC1,"inconclusive: 56.2 µM [inhibitor, partial curve]",–
Cc1cc(NC(=O)COC(=O)C2=COCCO2)c([N+](=O)[O-])cc1C,"inconclusive: 31.6 µM [inhibitor, partial curve, poor fit]",–
Cc1nn(C)cc1S(=O)(=O)Nc1ccc(F)c(F)c1,"inconclusive: 35.5 µM [inhibitor, partial curve, poor fit]",–
Cc1ccc(C)c(Cn2c3ccccc3c3cnn(CC(=O)NC(C)c4ccccc4)c(=O)c32)c1 (stereo not given),–,inactive: -11.5%
CC(C)CC(=O)NC(=S)Nc1ccc(S(=O)(=O)NC(C)(C)C)cc1,–,inactive: -15.2%
CCOC(=O)c1c(NC(=S)Nc2ccccc2)sc2c1CCCCC2,"inconclusive: 63.1 µM [inhibitor, partial curve, poor fit]",–
CC(OC(=O)c1cc2sccc2n1C)C(=O)NCc1ccco1 (stereo not given),"inconclusive: 44.7 µM [inhibitor, partial curve, poor fit]",–
COc1ccc(OC)c(NC(=O)Nc2cc(C(=O)O)ccc2C)c1,"inconclusive: 44.7 µM [inhibitor, partial curve]",–
O=C(COC(=O)c1n[nH]c2ccccc12)NC(=O)NCc1ccco1,"inconclusive: 25.1 µM [inhibitor, partial curve, poor fit]",–
